This is one part of the list. The full chains were built here from the parent and the listed change. Values near 0.05 are background.
B1: TEV protease; numbered along this chain (parent)
chain: MGESLFKGPRDYNPISSSICHLTNESDGHTTSLYGIGFGPFIITNKHLFRRNNGTLVVQSLHGVFKVKDTTTLQQHLVDGRDMIIIRMPKDFPPFPQKLKFREPQREERICLVTTNFQTKSMSSMVSDTSCTFPSGDGIFWKHWIQTKDGQCGSPLVSTRDGFIVGIHSASNFTNTNNYFTSVPKNFMELLTNQEAQQWVSGWRLNADSVLWGGHKVFMVKPEEPFQPVKEATQL

Variants of: B1
Experiment: raw area under fraction-flipped curve 0-4 h after induction (AUC4h, not background-subtracted), DNA-recorder readout of cleavage of the substrate (dimensionless); higher = more cleavage of the substrate by the protease variant
Details: temperature: 34 °C; time window: 0-4 h after rhamnose induction
Experimental: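 In vivo DNA recorder in E. coli TOP10(DE3) ΔrhaA at 34 °C. Each TEVp single-site mutant (parent TEVp 0) is paired with a single-site variant of the 7-mer TEVs (canonical ENLYFQ|S). The substrate sits between flexible linkers in a Bxb1-sfGFP-TEVs-SsrA fusion, so cleavage stabilises Bxb1 and speeds flipping of a recombination array, read by NGS. The value is the raw area under the fraction-flipped curve over 0-4 h after rhamnose induction (AUC4h), with ≥20 reads per time point. It is not background-subtracted; inactive controls average about 0.047.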
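Also: Bxb1 expression induced with 0.2% (w/v) L-rhamnose at OD600 near 0.5, cultures sampled hourly, flipped fraction per protease–substrate barcode pair counted by paired-end Illumina sequencing.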

Variant | area with substrate ENLAFQS | area with substrate ENLCFQS | area with substrate ENLDFQS | area with substrate ENLEFQS | area with substrate ENLFFQS | area with substrate ENLGFQS | area with substrate ENLHFQS | area with substrate ENLIFQS | area with substrate ENLKFQS | area with substrate ENLLFQS | area with substrate ENLNFQS | area with substrate ENLPFQS | area with substrate ENLRFQS | area with substrate ENLSFQS | area with substrate ENLQFQS | area with substrate ENLWFQS | area with substrate ENLVFQS | area with substrate ENLTFQS | area with substrate ENLMFQS
M88N | 0.0504 | 0.0601 | 0.0496 | 0.062 | 0.0809 | 0.0774 | 0.0637 | 0.0541 | 0.0563 | 0.0592 | 0.0526 | 0.0357 | 0.0675 | 0.0497 |  |  |  |  | 
M88F | 0.0569 | 0.0892 | 0.0575 |  | 0.0713 |  |  |  | 0.0695 |  | 0.0553 |  | 0.0554 |  | 0.0955 | 0.0524 |  |  | 
M88P | 0.0544 |  | 0.0581 | 0.0541 | 0.0743 |  | 0.0569 | 0.077 | 0.0637 | 0.0733 |  | 0.0618 | 0.0656 | 0.0515 | 0.0461 |  | 0.0789 |  | 
M88T | 0.0479 | 0.074 |  | 0.055 | 0.0883 |  |  |  | 0.0728 | 0.0636 | 0.0687 |  |  | 0.0586 | 0.0766 |  |  |  | 
M88R | 0.0589 | 0.0458 | 0.0529 |  | 0.0334 |  | 0.0339 |  |  |  | 0.0454 | 0.0461 |  | 0.0539 | 0.0594 | 0.0431 | 0.0562 | 0.0466 | 
M88V | 0.0576 | 0.0778 | 0.0534 |  | 0.0884 |  | 0.075 |  | 0.0668 |  | 0.06 |  | 0.0683 | 0.0609 | 0.0313 |  |  |  | 
D128S | 0.0539 | 0.0943 |  |  | 0.119 |  | 0.0844 | 0.108 | 0.11 | 0.0641 | 0.0581 | 0.0571 | 0.129 |  |  | 0.0936 | 0.118 |  | 
W144D | 0.0606 | 0.0629 | 0.0534 |  | 0.0882 |  | 0.0799 |  |  | 0.0686 | 0.0558 | 0.057 |  |  |  | 0.0698 | 0.0627 | 0.068 | 
W144F | 0.0615 | 0.0622 | 0.0537 |  |  |  | 0.0487 | 0.0885 | 0.0492 |  | 0.0672 |  |  |  |  | 0.0659 | 0.0731 | 0.0701 | 
W144A | 0.0636 | 0.0828 | 0.0605 |  | 0.0743 | 0.0952 | 0.0704 | 0.0736 | 0.0746 |  | 0.0799 |  | 0.0603 | 0.0853 | 0.0791 |  |  |  | 
W144I | 0.0683 | 0.0784 | 0.0613 | 0.054 | 0.0564 | 0.065 |  |  | 0.0686 |  |  |  | 0.0808 |  | 0.0811 |  |  |  | 0.063
S124K | 0.0564 |  | 0.0716 |  | 0.1 | 0.0754 | 0.0614 |  | 0.0778 | 0.0408 | 0.065 | 0.059 | 0.0762 | 0.061 |  | 0.0632 | 0.0899 |  | 0.0865
M125D | 0.0692 | 0.0734 | 0.0592 | 0.0599 | 0.101 |  | 0.0727 |  | 0.0812 |  | 0.0641 | 0.0605 | 0.068 | 0.0794 | 0.0695 | 0.0585 |  | 0.0632 | 0.0771
K98W | 0.0659 | 0.0763 | 0.0718 | 0.0554 | 0.0779 |  |  | 0.0796 | 0.0622 | 0.0678 | 0.0566 | 0.0728 | 0.0637 | 0.0612 | 0.0548 | 0.0475 |  |  | 
I145T | 0.069 | 0.0707 | 0.0655 | 0.0681 | 0.0965 |  | 0.069 |  | 0.089 | 0.0531 | 0.0678 | 0.069 | 0.0873 | 0.0767 | 0.0621 | 0.0779 | 0.0703 | 0.0597 | 
S127T | 0.0843 | 0.0772 | 0.0705 | 0.0622 | 0.0814 | 0.0702 | 0.0609 |  | 0.0911 | 0.0795 | 0.0592 | 0.0597 |  | 0.0738 | 0.0711 | 0.0746 | 0.0837 | 0.0753 | 0.092
R102I | 0.0434 | 0.0364 | 0.0482 | 0.0442 | 0.045 |  | 0.0511 |  | 0.0495 |  |  | 0.0547 | 0.0541 |  | 0.0567 |  |  |  | 
T132M | 0.0606 |  | 0.0606 | 0.0467 | 0.0897 | 0.0586 | 0.0618 | 0.076 | 0.0757 | 0.0693 |  |  | 0.0716 | 0.0583 | 0.0734 | 0.0737 | 0.087 | 0.0714 | 
T132D | 0.0536 | 0.0543 | 0.0534 | 0.0525 | 0.0662 | 0.0641 | 0.0591 | 0.064 |  | 0.0536 | 0.0501 | 0.0606 | 0.0569 | 0.0513 |  | 0.0611 | 0.0546 | 0.0536 | 
S121Q | 0.0614 | 0.0706 | 0.0699 | 0.0587 | 0.0805 |  | 0.0644 | 0.0874 | 0.0733 |  | 0.0626 | 0.061 | 0.0645 | 0.0768 | 0.0694 | 0.0523 | 0.0752 |  | 0.06
I85L | 0.0794 |  | 0.0673 |  | 0.094 |  | 0.0645 | 0.116 | 0.0897 |  | 0.0721 | 0.0637 |  | 0.0751 | 0.0907 |  | 0.119 |  | 0.0786
V126T | 0.069 | 0.0662 | 0.0699 | 0.0624 | 0.0898 |  | 0.0641 | 0.0871 | 0.0482 |  | 0.0686 | 0.0632 | 0.0751 | 0.0582 | 0.0613 | 0.0709 | 0.0938 |  | 
G136E | 0.0665 |  | 0.063 | 0.0628 | 0.0743 | 0.0767 | 0.0614 |  | 0.075 | 0.0714 | 0.0666 | 0.05 | 0.0728 | 0.059 | 0.0851 |  | 0.0972 |  | 0.0886
G136F | 0.075 |  | 0.066 | 0.0628 | 0.0922 | 0.0548 | 0.0673 | 0.0791 |  | 0.0732 | 0.0682 | 0.0535 | 0.0808 | 0.0687 | 0.13 |  |  | 0.073 | 0.0633
G136A | 0.0883 |  | 0.0651 | 0.0856 |  |  | 0.0684 |  | 0.0731 |  |  |  |  |  | 0.0567 |  | 0.0589 |  | 
T115G | 0.0617 |  | 0.0614 | 0.0638 |  |  |  |  | 0.0737 |  |  |  |  |  |  | 0.05 | 0.0608 |  | 
T115M | 0.0626 | 0.0718 | 0.0578 | 0.0628 | 0.0858 | 0.0862 | 0.0638 |  | 0.0784 | 0.0636 | 0.0619 | 0.0759 | 0.113 | 0.0718 | 0.0731 | 0.051 | 0.0835 | 0.071 | 0.0581

Source: the supplement of paper PMC12217912
